# Source: publication PMC4336329 (PLoS ONE, 2015)
# The campaign covered roughly 310,000 compounds. About 2,200 (0.71%) showed an effect of 50% or more. The effect is printed as a negative number. The list shows a part of the results.
# Molecular target: human ether-à-go-go-related gene (hERG) potassium channel (human, UniProt Q12809)
# Assay: primary screen, population patch clamp on CHO cells stably expressing hERG
# Chain of human ether-à-go-go-related gene (hERG) potassium channel (Q12809 whole entry, looked up): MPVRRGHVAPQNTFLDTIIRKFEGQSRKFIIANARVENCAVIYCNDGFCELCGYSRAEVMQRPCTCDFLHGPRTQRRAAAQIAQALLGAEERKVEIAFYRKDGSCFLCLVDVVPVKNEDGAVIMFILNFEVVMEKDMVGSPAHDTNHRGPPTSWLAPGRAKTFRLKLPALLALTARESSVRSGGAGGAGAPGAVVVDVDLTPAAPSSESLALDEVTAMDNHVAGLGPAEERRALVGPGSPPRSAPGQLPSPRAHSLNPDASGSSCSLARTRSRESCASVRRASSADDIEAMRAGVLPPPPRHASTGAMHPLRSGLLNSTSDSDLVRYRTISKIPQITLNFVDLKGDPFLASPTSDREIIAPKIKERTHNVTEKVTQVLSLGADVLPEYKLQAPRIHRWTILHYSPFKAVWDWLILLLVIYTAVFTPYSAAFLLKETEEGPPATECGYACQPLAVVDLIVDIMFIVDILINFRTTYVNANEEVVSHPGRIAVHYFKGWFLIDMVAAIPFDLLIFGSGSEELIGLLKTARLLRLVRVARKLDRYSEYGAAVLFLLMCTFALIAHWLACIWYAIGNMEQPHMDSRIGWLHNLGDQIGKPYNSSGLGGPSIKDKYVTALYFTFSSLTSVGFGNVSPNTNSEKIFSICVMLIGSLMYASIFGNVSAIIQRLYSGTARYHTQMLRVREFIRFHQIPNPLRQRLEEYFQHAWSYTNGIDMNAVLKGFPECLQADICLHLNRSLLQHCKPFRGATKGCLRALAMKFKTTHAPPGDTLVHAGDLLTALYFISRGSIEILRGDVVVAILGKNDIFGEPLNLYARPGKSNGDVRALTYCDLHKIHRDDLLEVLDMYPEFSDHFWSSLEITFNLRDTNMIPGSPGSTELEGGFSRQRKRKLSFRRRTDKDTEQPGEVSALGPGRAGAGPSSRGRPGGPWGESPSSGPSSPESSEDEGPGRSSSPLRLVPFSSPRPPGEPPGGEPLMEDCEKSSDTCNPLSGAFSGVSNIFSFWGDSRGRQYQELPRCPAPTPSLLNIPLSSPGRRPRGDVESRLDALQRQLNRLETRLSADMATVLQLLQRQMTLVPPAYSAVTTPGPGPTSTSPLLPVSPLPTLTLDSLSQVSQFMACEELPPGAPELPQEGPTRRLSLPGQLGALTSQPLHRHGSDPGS
row,Compound,"hERG current change (%, negative = inhibition) at 1uM"
1,COc1ccc(N(CC(=O)NCCSCc2cccc(Cl)c2)S(C)(=O)=O)cc1Cl,7.16%
2,COCCN(CCOC)C(=O)Nc1ccc(Cl)cc1,-0.242%
3,CNC(=S)NNC(=O)c1sccc1OCc1ccc(C)cc1,2.12%
4,Cc1cccc(C)c1NC(=O)CS(=O)CC(=O)NCCCc1ccccc1 (stereo not drawn),10.2%
5,COc1cccc(-c2nnc(-c3ccc(C)o3)o2)c1,2.38%
6,CCCc1nc2oc3c(NCCN4CCOCC4)ncnc3c2c2c1CCCC2,9.2%
7,COc1cc(/C=N/NC(=S)Nc2cccnc2)cc(OC)c1OC,5.16%
8,CC(=O)c1sc(NC(=O)c2ccc(Cl)cc2)nc1C,10.7%
9,CCOc1cc(S(=O)(=O)NCc2ccccn2)c(C)cc1C,-16.2%
10,CCOCc1nnc(NC(=O)c2cc(OC)cc(OC)c2)s1,14.7%
11,CCCn1nnc(NC(=O)COc2cc(C)ccc2C(C)C)n1,-2.78%
12,Fc1cccc(-c2csc(-c3ccno3)n2)c1,11.1%
13,O=C1c2ccccc2C(=O)C1c1ccc2ccccc2n1,4.78%
14,CCCN1CCN(c2nc3c([nH]2)c(=N)ncn3CC(O)CO)CC1 (stereo not drawn),18.3%
15,O=C(c1c(F)cccc1F)N1CCN(S(=O)(=O)c2ccc3c(c2)OCCO3)CC1,18.9%
16,O=C(Nc1cc(C(F)(F)F)ccc1Cl)C(Sc1n[nH]c(=O)[nH]c1=O)c1ccccc1 (stereo not drawn),8.07%
17,CNC(=S)N1N=C(c2ccccc2)CC1c1ccc(Br)cc1 (stereo not drawn),2.67%
18,O=C(CSc1ccc2ccccc2c1)NCCc1ccc(O)c(O)c1,5.01%
19,CCN1CNC(=S)N(CCc2ccccc2)C1,7.18%
20,CCOC(=O)/N=C(/NC(=O)Nc1ccc(C(=O)OCC)cc1)OC,4.77%

row,Compound,"hERG current change (%, negative = inhibition) at 1uM"
1,CCC(O)c1cc2c(cc1NC(=O)c1ccc(C)cc1)OCCO2 (stereo not drawn),6.5%
2,Cc1c(C(=O)NC2CCCc3ccccc32)oc2ccccc12 (stereo not drawn),6.98%
3,COc1ccc(C)cc1NC(=O)N1CCC(CO)(CC2CCCCO2)CC1 (stereo not drawn),6.36%
4,CCOc1ccc(N2CC(C(=O)NCCN3C(=O)S/C(=C\c4ccc(OC)cc4)C3=O)CC2=O)cc1 (stereo not drawn),9.86%
5,Cc1cc([N+](=O)[O-])ccc1NC(=O)C(C)NC1CCCCC1 (stereo not drawn),10.9%
6,Cc1c(NC(=O)/C(=C/c2cccs2)c2cccs2)c(=O)n(-c2ccccc2)n1C,5.43%
7,O=C(NCc1n[nH]c(=S)n1-c1ccccc1)c1cccs1,4.29%
8,Cc1ccc(S(=O)(=O)N(C)C)cc1NC(=O)COC(=O)c1c(-c2ccccc2)noc1C,-0.737%
9,C=CCn1c(SCC(=O)Nc2ccc(NC(=O)c3ccco3)c(OC)c2)nnc1-c1ccncc1,5.01%
10,O=C(CSc1ccsc1[N+](=O)[O-])N1CCCCC1,2.07%
11,CN(C)/C=N/NC(=O)c1ccccc1,13.2%
12,C(=C\c1ccc2ccccc2n1)/c1ccccc1,12.6%
13,CCOC(=O)C1CCN(C(=O)CC(C)c2ccccc2)CC1 (stereo not drawn),9.59%
14,COc1cccc(-n2nc3c(=O)n(Cc4ccccc4Cl)nc(C)c3c2C)c1,17.2%
15,O=C(Nc1ccc2c(c1)OCO2)c1cc(C2CC2)on1,17.5%
16,COc1ccc2c3n([n+]([O-])c2c1)CCN=C3c1ccc(Cl)cc1,1.64%
17,Cc1ccnc(SCC(=O)Nc2sccc2C#N)n1,12.7%
18,COc1cccc(C(=O)NCC(=O)N/N=C/c2cn[nH]c2-c2ccccc2)c1,-6.97%
19,O=C(Nc1cccnc1)c1ccc(COc2ccccc2Br)cc1,11.2%
20,CN1CC(C#N)C2(O)c3ccccc3CCC2C1 (stereo not drawn),13.6%

row,Compound,"hERG current change (%, negative = inhibition) at 1uM"
1,Cc1ccc(Cl)c(OC(=O)Cn2cnc3c2c(=O)n(C)c(=O)n3C)c1,14.9%
2,COc1ccc(Cc2nnc(NC(=O)Nc3ccc(F)cc3)s2)cc1OC,10.7%
3,CCOc1ccccc1N1CCN(C(=O)CCNS(=O)(=O)c2ccccc2F)CC1,17.6%
4,Cc1ccc(C)c(OCc2nc(-c3cccnc3)no2)c1,6.88%
5,Cc1ccc(C(=O)Nc2cccnc2)cc1S(=O)(=O)N1CCCCCC1,10.9%
6,C=CCOc1ccccc1CN1CCN(CCc2ccccc2)C(CCO)C1 (stereo not drawn),-24.3%
7,CCN1CCN(C(=S)NC(=O)c2cccs2)CC1,3.67%
8,CCc1c(C)nc(SCC(=O)N2CC(C)OC(C)C2)[nH]c1=O (stereo not drawn),-2.18%
9,CC(=O)Nc1ccc2sc(NC(=O)CN3CCOCC3)nc2c1,14.4%
10,CC(C)NC(=O)CS(=O)(=O)c1ccccc1,0.994%
11,CC(C)OCCCNC(=O)c1cccc2c1C(=O)c1ccc(Cl)cc1S2(=O)=O,8.81%
12,COc1ccc(Cl)cc1NC(=O)C1CCN(C(=O)C2CC(=O)N(c3ccc(C)cc3)C2)CC1 (stereo not drawn),-10.5%
13,CCNc1nc(N)nc(Oc2ccc(C(=O)OC)cc2)n1,14.8%
14,Cc1cccc(CSc2ccc(-c3cccs3)nn2)c1,12.5%
15,CNC(=S)N1CCN(c2ccc(Cl)c(Cl)c2)CC1,11.1%
16,Cc1cc(OCC(O)CN(C)C(=O)C(C)Oc2ccccc2)ccc1Cl (stereo not drawn),13.5%
17,Cc1cccc(CSc2ncnc3nc[nH]c23)c1,6.73%
18,CCc1ccccc1NC(=O)Nc1ccc(F)cc1,3.13%
19,Cc1cc2ccccn2c1C(=O)c1nc(NCc2ccco2)ncc1Cl,14.5%
20,CCCn1c(COc2ccccc2)nc2ccccc21,5.5%
